Structures are written as SMILES. Where two headings read alike, the source gives them in different places.

The target in series [1] is T1, bovine serum albumin (BSA) (Bos taurus, UniProt P02769).
T1 construct: purchased Sigma Aldrich
As to the kind of experiment: RP TLC on plates impregnated with bovine serum albumin. Conditions: Table S4, RP plate impregnated with 2 mg/mL BSA; pH 7.4 mobile phase. The series is classed as binding.

Series [2] has as its target human serum albumin (HSA) (Homo sapiens, UniProt P02768).
In the next series the test system is plasma protein. The settings on record: Table S1, plasma protein binding given as fraction; ref DrugBank [7]; cited from earlier work.
The conditions of series [3]: Table S1, coded 1/0; ref DrugBank [7]; cited from earlier work.
The conditions of series [4]: Table S1; source not stated; cited from earlier work.
Series [5] concerns the target T1, bovine serum albumin (BSA). As to the kind of experiment: NP TLC on plates impregnated with bovine serum albumin. The format is binding. The settings on record: Table S3, NP plate impregnated with 2 mg/mL BSA; pH 7.4 mobile phase.
Series [6] in a line: Milk-to-plasma (M/P) drug concentration ratio obtained in vivo, from literature. Also on record: species or system human. The settings on record: Table S1, scale of drug penetration into milk 1-4.
The conditions of series [7]: Table S1, milk/plasma drug concentration ratio, in vivo; cited from earlier work.
Setting [8] is: Table S5, retention factor, HSA column, pH 7.4, 25 degrees Celsius.

human serum albumin (HSA), sequence (P02768 25-609): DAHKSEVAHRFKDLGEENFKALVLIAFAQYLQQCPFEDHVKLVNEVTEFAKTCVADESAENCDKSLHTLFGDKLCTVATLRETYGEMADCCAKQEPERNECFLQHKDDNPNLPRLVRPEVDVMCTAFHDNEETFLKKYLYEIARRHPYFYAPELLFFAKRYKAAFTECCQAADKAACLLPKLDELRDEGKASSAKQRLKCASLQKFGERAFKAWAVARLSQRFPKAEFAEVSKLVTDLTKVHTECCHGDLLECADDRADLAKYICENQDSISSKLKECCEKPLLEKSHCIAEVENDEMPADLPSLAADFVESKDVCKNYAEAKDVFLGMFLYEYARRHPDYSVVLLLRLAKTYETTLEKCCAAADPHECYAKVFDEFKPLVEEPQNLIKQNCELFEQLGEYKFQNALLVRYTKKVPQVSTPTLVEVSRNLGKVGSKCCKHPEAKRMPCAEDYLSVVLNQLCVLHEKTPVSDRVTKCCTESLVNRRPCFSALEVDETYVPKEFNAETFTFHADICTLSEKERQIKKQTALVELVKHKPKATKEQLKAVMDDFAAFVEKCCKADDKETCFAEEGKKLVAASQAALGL
T1 sequence (P02769 25-607): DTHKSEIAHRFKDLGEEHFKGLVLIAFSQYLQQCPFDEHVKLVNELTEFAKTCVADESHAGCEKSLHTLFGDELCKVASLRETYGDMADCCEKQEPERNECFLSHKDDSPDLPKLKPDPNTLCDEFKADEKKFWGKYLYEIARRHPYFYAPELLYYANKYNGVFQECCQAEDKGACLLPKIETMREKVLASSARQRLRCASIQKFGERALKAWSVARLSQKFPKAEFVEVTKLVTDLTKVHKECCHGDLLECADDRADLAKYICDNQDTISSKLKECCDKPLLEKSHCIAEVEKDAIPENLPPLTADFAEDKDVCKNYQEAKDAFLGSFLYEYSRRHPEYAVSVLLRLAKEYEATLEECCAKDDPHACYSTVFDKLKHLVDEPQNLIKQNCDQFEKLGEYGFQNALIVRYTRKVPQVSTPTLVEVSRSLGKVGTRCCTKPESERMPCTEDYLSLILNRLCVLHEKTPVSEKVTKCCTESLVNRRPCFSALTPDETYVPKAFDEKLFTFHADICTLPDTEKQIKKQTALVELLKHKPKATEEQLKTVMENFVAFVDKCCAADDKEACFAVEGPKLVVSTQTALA

For the compound `CCCCc1oc2ccccc2c1C(=O)c1cc(I)c(OCCN(CC)CC)c(I)c1` [amiodarone], in series [1], the “RP (Rf, BSA-impregnated RP plate)” value was found to be 0.34. As to `CC(C)c1c(C(=O)Nc2ccccc2)c(-c2ccccc2)c(-c2ccc(F)cc2)n1CC[C@@H](O)C[C@@H](O)CC(=O)O` [atorvastatin], in series [1], the “RP (Rf, BSA-impregnated RP plate)” value was 0.89. The “log k HSA” value in series [2] (Table S5, HSA, pH 7.4) is 0.54. For the same compound, the “k HSA” value in series [2] (setting [8]) is listed as 3.48. Further, the PB in the series with plasma protein is 0.98. Besides, the “CNS+/-” value in series [3] is reported as 0. For the compound `CN1[C@@H]2CC[C@H]1C[C@@H](OC(=O)C(CO)c1ccccc1)C2` (some centres unmarked) [atropine], the PB with plasma protein is 0.18. Consider `CC1=C(C(=O)O)N2C(=O)[C@@H](NC(=O)[C@H](N)c3ccccc3)[C@H]2SC1` [cephalexin], for which the PB in the series on plasma protein is 0.14. `O=C(O)COCCN1CCN(C(c2ccccc2)c2ccc(Cl)cc2)CC1` (centres unmarked) [cetrizine]: in series [4], the BB vivo was -2.150. Take `O=C(O)c1cn(C2CC2)c2cc(N3CCNCC3)c(F)cc2c1=O` [ciprofloxacin]: in the series on plasma protein, the PB is reported as 0.3. As to `CN1C(=O)CN=C(c2ccccc2)c2cc(Cl)ccc21` [diazepam], the BB vivo in series [4] is on record as 0.346. Consider `CC(C)(C(=O)O)c1ccc(C(O)CCCN2CCC(C(O)(c3ccccc3)c3ccccc3)CC2)cc1` (centres unmarked) [fexofenadine], for which, in the series with plasma protein, the PB is given as 0.65. Take `NS(=O)(=O)c1cc(C(=O)O)c(NCc2ccco2)cc1Cl` [furosemide]: the PB in the series on plasma protein was 0.95. As for `CCOC(=O)N1CCC(=C2c3ccc(Cl)cc3CCc3cccnc32)CC1` [loratadine], in the series with plasma protein, the PB is 0.98. On to `COc1ccc2cc([C@H](C)C(=O)O)ccc2c1` [naproxen], for which the “NP (Rf, BSA-impregnated NP plate)” value in series [5] was 0.89. The “RP (Rf, BSA-impregnated RP plate)” value in series [1] is given as 0.87. In addition, the “k HSA” value in series [2] (setting [8]) turned out to be 90.08.

Turning to `O=C1Nc2ccc(Cl)cc2C(c2ccccc2)=NC1O` (centres unmarked) [oxazepam], the M/P code in series [6] is recorded as 1 (Code 1 corresponds to drugs with an M/P value <0.40—completely safe). For the same compound, the “k HSA” value in series [2] (pH 7.4) was determined as 1.65. In addition, the M/P in series [7] is given as 0.1. Besides, in the series on plasma protein, the PB is reported as 0.85. Further, in series [4], the BB vivo is recorded as 0.580.

`CCCNCC(O)COc1ccccc1C(=O)CCc1ccccc1` (centres unmarked) [propafenone]: in series [5], the “NP (Rf, BSA-impregnated NP plate)” value was 0.59. In series [1], the “RP (Rf, BSA-impregnated RP plate)” value came to 0.61. For the same compound, the PB with plasma protein is reported as 0.97. For the compound `CN1C(=O)C(O)N=C(c2ccccc2)c2cc(Cl)ccc21` (centres unmarked) [temazepam], the PB with plasma protein is 0.96.
